This is one part of the list. Cut-off read from the data, not from the text of the source: active = 3.2 or more and inactive = the rest. The signal is at background level for most entries.

Enrichment score data for 19 molecules are collected here from the supplement of paper PMC10369915.

Sequences and labels used below:
B1: MYOM3_Y343 (peptide)
chain: EDEGLYMVRVP
B2: NAT1_Y208_T207I (peptide)
chain: ESMNIYLQTSP
B3: MYOM2_Y1024_L1022F (peptide)
chain: KSEFAYEIFDK
B4: MYOF_Y1705_YF (peptide)
chain: FGGRDYSLDEF
B5: NCAPD2_Y1325_T1321S (peptide)
chain: SSGSRYQPLAS
B6: NBEAL2_Y1835_E1833K (peptide)
chain: SSAKTYSRMRL
B7: NDRG2_Y47_T45S (peptide)
chain: SVESPYGSVTF
B8: NAMPT_Y175_L176S (peptide)
chain: KILAKYSLETS
B9: NDST1_Y714_YF (peptide)
chain: RAFSWYQHQRA
B10: NDST1_Y711 (peptide)
chain: PADRAYSWYQH
B11: NCF2_Y125 (peptide)
chain: ACEVLYNIAFM
B12: NDUFAF4_Y69_L65P (peptide)
chain: FPKDVYVDSKD
B13: NCAPD2_Y1325 (peptide)
chain: STGSRYQPLAS
B14: NDUFS8_Y74 (peptide)
chain: GMTLSYLFREP
B15: NCKIPSD_Y660_Y660S (peptide)
chain: KLRMESLSLMH
B16: NBEAL2_Y1835_R1839C (peptide)
chain: SSAETYSRMCL
B17: NANS_Y188 (peptide)
chain: QCTSAYPLQPE
B18: MYOM2_Y871_N869S (peptide)
chain: TTASRYLKVSD
B19: NBEAL2_Y2748 (peptide)
chain: SGETEYNPTEA
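Note: displayed peptides selected on beads carrying the immobilized SH2 domain, with library peptides lacking any tyrosine serving as negative controls.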

The target in the first test is SHP2 C-SH2 domain E139D. The experiment in a line: enrichment score (SH2-bound / input frequency) (ratio); bacterial display of known human phosphotyrosine sites (pTyr-Var adds point mutants) read by sequencing; higher = stronger binding; tyrosines were phosphorylated by kinases first. The following applies: peptide library: pTyr-Var.
For B1, the enrichment score was inactive: 0.729.
Same read-out and setting: to B2 belongs inactive: 0.779; to B3, inactive: 0.931; to B4, inactive: 0.741.
As for B5, the enrichment score is inactive: 0.603.
On the same count and under the same terms, to B6 belongs inactive: 0.563.
On the same count and under the same terms, under B7 stands inactive: 0.755; under B8, inactive: 1.4; under B9, inactive: 2.21.
On the same count and under the same terms, under B10 stands inactive: 0.969; under B11, inactive: 1.15.
For the molecule B12, the enrichment score is inactive: 0.79.
Still for that read-out and setting: under B13 stands inactive: 0.765.
Regarding B14, the enrichment score was inactive: 2.14.
On the same count and under the same terms, under B15 stands inactive: 1.43; under B16, inactive: 0.727.
As to B17, the enrichment score is inactive: 0.704.
On the same count and under the same terms, under B18 stands inactive: 0.521; under B19, inactive: 0.483.

A further test concerns the target SHP2 C-SH2 domain wild-type. Described as above. The following applies: peptide library: pTyr-Var.
For B1, the enrichment score is inactive: 0.714.
Same read-out and setting: to B2 belongs inactive: 0.942.
The same measure, in the same setting: to B3 belongs inactive: 0.705; to B4, inactive: 0.719.
With B5, the enrichment score was inactive: 0.579.
Still for that read-out and setting: under B6 stands inactive: 0.553.
Same read-out and setting: under B7 stands inactive: 0.635; under B8, inactive: 1.16; under B9, inactive: 1.8.
Still for that read-out and setting: to B10 belongs inactive: 1.03; to B11, inactive: 1.62.
For the molecule B12, the enrichment score is inactive: 0.783.
In the case of B13, the enrichment score was inactive: 0.666.
With B14, the enrichment score is inactive: 2.16.
The same measure, in the same setting: to B15 belongs inactive: 1.
Same read-out and setting: under B16 stands inactive: 0.741.
Still for that read-out and setting: under B17 stands inactive: 0.554; under B18, inactive: 0.318.
In the case of B19, the enrichment score was inactive: 0.467.

Another test has as its target SHP2 N-SH2 domain L43F. Described as above. The settings on record: peptide library: pTyr-Var.
With B1, the enrichment score was inactive: 0.743.
Same read-out and setting: to B2 belongs inactive: 0.726; to B3, inactive: 0.782.
Turning to B4, the enrichment score is inactive: 0.836.
On the same count and under the same terms, under B5 stands inactive: 0.488; under B6, inactive: 0.455; under B7, inactive: 0.698.
As to B8, the enrichment score is inactive: 1.19.
Still for that read-out and setting: under B9 stands inactive: 2.08; under B10, inactive: 0.835.
The same measure, in the same setting: to B11 belongs inactive: 1.39; to B12, inactive: 0.629; to B13, inactive: 0.608.
Still for that read-out and setting: to B14 belongs inactive: 2.13; to B15, inactive: 1.
For the molecule B16, the enrichment score is inactive: 0.716.
On the same count and under the same terms, to B17 belongs inactive: 0.502; to B18, inactive: 0.547.
On the same count and under the same terms, to B19 belongs inactive: 0.446.

A further test has as its target SHP2 N-SH2 domain T42A. The description is as above. The settings on record: peptide library: pTyr-Var.
On to B1, for which the enrichment score is inactive: 0.627.
Same read-out and setting: to B2 belongs inactive: 0.821.
Still for that read-out and setting: to B3 belongs inactive: 0.693; to B4, inactive: 0.761; to B5, inactive: 0.515.
Same read-out and setting: to B6 belongs inactive: 0.523.
As to B7, the enrichment score is inactive: 0.718.
Still for that read-out and setting: to B8 belongs inactive: 1.03.
Same read-out and setting: to B9 belongs inactive: 1.59; to B10, inactive: 0.778.
For the molecule B11, the enrichment score was inactive: 0.967.
The same measure, in the same setting: to B12 belongs inactive: 0.608; to B13, inactive: 0.645.
The same measure, in the same setting: to B14 belongs inactive: 2.19; to B15, inactive: 1.03; to B16, inactive: 0.667.
For the molecule B17, the enrichment score is inactive: 0.646.
Still for that read-out and setting: to B18 belongs inactive: 0.54; to B19, inactive: 0.418.

In a further test the target is SHP2 N-SH2 domain T52S. Described as above. The following applies: peptide library: pTyr-Var.
B1: the enrichment score is inactive: 0.695.
On the same count and under the same terms, under B2 stands inactive: 0.762; under B3, inactive: 0.804.
Take B4: the enrichment score is inactive: 0.831.
Turning to B5, the enrichment score is inactive: 0.606.
The same measure, in the same setting: to B6 belongs inactive: 0.51; to B7, inactive: 0.77.
Same read-out and setting: under B8 stands inactive: 1.24; under B9, inactive: 1.68.
On the same count and under the same terms, to B10 belongs inactive: 0.831.
Take B11: the enrichment score is inactive: 0.891.
Same read-out and setting: under B12 stands inactive: 0.809; under B13, inactive: 0.598.
On the same count and under the same terms, under B14 stands inactive: 2.49.
The same measure, in the same setting: under B15 stands inactive: 1.18.
As for B16, the enrichment score is inactive: 0.676.
Same read-out and setting: under B17 stands inactive: 0.638.
On the same count and under the same terms, under B18 stands inactive: 0.654; under B19, inactive: 0.547.

The target of a further test is SHP2 N-SH2 domain wild-type. The description is as above. The settings on record: peptide library: pTyr-Var.
As for B1, the enrichment score is inactive: 0.929.
On the same count and under the same terms, to B2 belongs inactive: 0.872; to B3, inactive: 0.757.
The same measure, in the same setting: to B4 belongs inactive: 0.903; to B5, inactive: 0.669.
The same measure, in the same setting: to B6 belongs inactive: 0.435; to B7, inactive: 0.864.
In the case of B8, the enrichment score is inactive: 1.03.
Still for that read-out and setting: to B9 belongs inactive: 2.13; to B10, inactive: 0.71.
Turning to B11, the enrichment score is inactive: 1.47.
On the same count and under the same terms, under B12 stands inactive: 0.744.
For the molecule B13, the enrichment score is inactive: 0.685.
In the case of B14, the enrichment score was inactive: 2.21.
Same read-out and setting: under B15 stands inactive: 1.15.
Take B16: the enrichment score is inactive: 0.906.
On the same count and under the same terms, to B17 belongs inactive: 0.735; to B18, inactive: 0.617; to B19, inactive: 0.481.
